Test results reported in a compilation of properties of binary mixtures (doi:10.1007/s10953-005-5594-7).
The densities may have been worked out from excess volumes.

Test: xn = mol fraction of the nth substance listed
Settings: 298.15 K, 101.3 kPa

CCCC[n+]1ccn(C)c1.F[P-](F)(F)(F)(F)F + CC(C)=O
Settings | mass density [kg/m3]
x2 = 0 | 1367.9
x2 = 0.1147 | 1345.3
x2 = 0.198 | 1326.7
x2 = 0.2923 | 1302.5
x2 = 0.4035 | 1267.2
x2 = 0.4993 | 1231.1
x2 = 0.5495 | 1209.4
x2 = 0.6519 | 1156.2
x2 = 0.6989 | 1127.3
x2 = 0.8956 | 946.8
x2 = 0.9481 | 874.3

CCCC[n+]1ccn(C)c1.F[P-](F)(F)(F)(F)F + CCC(=O)CC
Settings | mass density [kg/m3]
x2 = 0 | 1367.9

CCCC[n+]1ccn(C)c1.F[P-](F)(F)(F)(F)F + CCC(C)=O
Settings | mass density [kg/m3]
x2 = 0 | 1367.9
x2 = 0.0995 | 1343.9
x2 = 0.2007 | 1317.5
x2 = 0.5002 | 1210.2
x2 = 0.5506 | 1186.1
x2 = 0.5988 | 1161.3
x2 = 0.7023 | 1098.2
x2 = 0.8004 | 1024
x2 = 0.9027 | 925.1
x2 = 0.9487 | 872.3

CC(C)=O + CCCC[n+]1ccn(C)c1.F[P-](F)(F)(F)(F)F
Settings | mass density [kg/m3]
x1 = 1 | 784.9

CCC(=O)CC + CCCC[n+]1ccn(C)c1.F[P-](F)(F)(F)(F)F
Settings | mass density [kg/m3]
x1 = 0.1088 | 1336.5
x1 = 0.3986 | 1236.6
x1 = 0.4491 | 1214.9
x1 = 0.5503 | 1165.7
x1 = 0.601 | 1138.7
x1 = 0.6983 | 1080.2
x1 = 0.8007 | 1006.4
x1 = 0.9019 | 917.9
x1 = 0.948 | 870.9
x1 = 1 | 810.9

CCC(C)=O + CCCC[n+]1ccn(C)c1.F[P-](F)(F)(F)(F)F
Settings | mass density [kg/m3]
x1 = 1 | 799.7

CCOC(C)=O + CCCC[n+]1ccn(C)c1.F[P-](F)(F)(F)(F)F
Settings | mass density [kg/m3]
x1 = 1 | 894.6

O=C1CCCC1 + CCCC[n+]1ccn(C)c1.F[P-](F)(F)(F)(F)F
Settings | mass density [kg/m3]
x1 = 0.1883 | 1330.7
x1 = 0.4475 | 1264.2
x1 = 0.5025 | 1246.3
x1 = 0.6034 | 1210.9
x1 = 0.6502 | 1188.6
x1 = 0.7011 | 1163.9
x1 = 0.8041 | 1106
x1 = 0.8982 | 1039.4
x1 = 0.9518 | 991
x1 = 1 | 943.9

CCCC[n+]1ccn(C)c1.F[P-](F)(F)(F)(F)F + CCOC(C)=O
Settings | mass density [kg/m3]
x2 = 0 | 1367.9
x2 = 0.0937 | 1347.9
x2 = 0.1914 | 1325.6
x2 = 0.2918 | 1297.9
x2 = 0.3944 | 1267.1
x2 = 0.4485 | 1249.5
x2 = 0.4967 | 1231.7
x2 = 0.5529 | 1209.2
x2 = 0.6039 | 1186.5
x2 = 0.7092 | 1131
x2 = 0.8037 | 1070.8
x2 = 0.898 | 996.5
x2 = 0.9504 | 947.5
